# Measured values taken from PubChem BioAssay AID504845 (National Center for Advancing Translational Sciences (NCATS), 2011).
# Where “and” joins values, the source holds several entries; their conditions need not be identical. Identical values can stand only once. Screen size: about 390,000 compounds; about 150 (0.038%) were called active. Inconclusive results, whose numbers are uncertain, are shown with a selection of clear calls. The call rests on the fitted dose curve; in most records, active means well fitted inhibition curve with a large enough effect; inconclusive means small, poorly fitted or top-dose-only effect; inactive means no such curve, though single readings can be large or run the other way. Potencies beside an inconclusive call are fits to weak or partial responses and may not hold up.
# Biological target: Regulator of G-protein signaling 4 (Homo sapiens) (UniProt P49798)
# UniProt P49798, sequence (P49798 whole entry, looked up): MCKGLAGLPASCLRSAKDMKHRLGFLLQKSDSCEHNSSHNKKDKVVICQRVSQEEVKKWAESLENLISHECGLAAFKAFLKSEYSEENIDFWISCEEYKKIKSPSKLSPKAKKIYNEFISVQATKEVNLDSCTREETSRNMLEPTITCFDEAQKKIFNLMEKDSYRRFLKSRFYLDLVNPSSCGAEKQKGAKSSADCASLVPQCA
# Assay: Inhibitors of Regulator of G Protein Signaling (RGS) 4: qHTS; further: nearly all actives have a fitted effect of over 75% in size
# Details: Transcreener GDP fluorescence polarization, RGS4-accelerated GTP hydrolysis; series mostly up to 114 µM
# In short: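 MLSMR compounds (23 nl, pin-transferred) preincubated 10 min at room temperature with a 500nM (2x) first reagent, then RGS4 at 900nM (2x) plus Transcreener GDP mix added; fluorescence polarization (620/688 nm) read before and after 90 min at 30 °C.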
# Potency means the concentration at half of the fitted maximal effect; tags describe the fitted curve by direction and shape.
row,SMILES,Potency
1,CSc1ccc(N/N=C(/C#N)S(=O)(=O)C(C)(C)C)cc1,"inconclusive: 50.1 µM [inhibitor, partial curve, poor fit]"
2,O=C(NCCc1ccccc1)c1cccc(NC(=O)C2CCCC2)c1,inactive
3,Cc1cccc(C(=O)Nc2nc(-c3nnn(-c4cc(F)ccc4F)c3C)ns2)c1,"inconclusive: 112 µM [inhibitor, partial curve, poor fit]"
4,CC1CCc2ccccc2N1C(=O)c1cccs1 (stereo unspecified),"inconclusive: 89.1 µM [inhibitor, partial curve, poor fit]"
5,CCOc1cc(N2CCOCC2)c(OCC)cc1NC(=O)Cc1ccccc1OC,"inconclusive: 89.1 µM [inhibitor, single point]"
6,COc1cc(N2CCCC2)c(OC)cc1/C=C(/C#N)c1cccc(F)c1,"inconclusive: 79.4 µM [inhibitor, partial curve, poor fit]"
7,CN(C)/C=C1\NC(=S)N(c2ccc(Cl)cc2)C1=O,"inconclusive: 50.1 µM [inhibitor, partial curve, poor fit]"
8,CN(C)C(=S)N=Nc1[nH]c2ccccc2c1O,"inconclusive: 79.4 µM [inhibitor, partial curve, poor fit]"
9,COc1ccc(CCNC(=O)c2cc3c(=O)n4ccccc4nc3n(CCCN3CCOCC3)c2=N)cc1,inactive
10,Cc1csc(N(C(=O)Cc2ccccc2F)c2ccccc2)n1,"inconclusive: 100 µM [inhibitor, single point]"
11,COC(=O)CNC(=O)C1Nc2ccccc2C2C=CCC12 (stereo unspecified),"inconclusive: 79.4 µM [inhibitor, partial curve, poor fit]"
12,Cc1cn(CC(=O)NCC(c2ccccc2)c2ccccc2)c(=O)[nH]c1=O,"inconclusive: 79.4 µM [inhibitor, single point]"
13,Oc1ccc(C(=S)N2CCN(c3cccc(Cl)c3)CC2)cc1,"inconclusive: 44.7 µM [inhibitor, partial curve, poor fit]"
14,CC(=O)N1CCc2c(sc(NC(=O)Cc3ccccc3)c2C(N)=O)C1,inactive
15,N#Cc1ccc(N2CCOCC2)c([N+](=O)[O-])c1,"inconclusive: 44.7 µM [inhibitor, partial curve, poor fit]"
16,O=C(CCCCn1c(=S)[nH]c2ccsc2c1=O)NCc1ccc2c(c1)OCO2,"inconclusive: 35.5 µM [inhibitor, full curve, poor fit]"
17,O=C(c1ccc(OCCCc2cnc[nH]2)cc1)C1CC1,inactive
18,O=C(CN1CCOCC1)Nc1ccc(Oc2ccccc2)cc1,inactive
19,NC(=S)NNc1cccc2cccnc12,"inconclusive: 50.1 µM [inhibitor, partial curve, poor fit]"
20,CCOc1ccc2nc(NC(=O)CSc3nc(SC)ns3)sc2c1,"inconclusive: 89.1 µM [inhibitor, partial curve, poor fit]"
21,O=S(=O)(O)c1cc(O)c2ccc(Nc3ccccc3)cc2c1,"inconclusive: 56.2 µM [inhibitor, partial curve, poor fit]"

row,SMILES,Potency
1,COc1ccccc1-c1cc(NC(=O)COc2ccc(C)c(C)c2)n(-c2ccccc2)n1,inactive
2,Cc1ccc2nc(SCC(=O)Nc3cccc(S(=O)(=O)N(C)C)c3)[nH]c2c1,"inconclusive: 50.1 µM [inhibitor, partial curve, poor fit]"
3,COc1ccc(C2=CC(c3ccc(Cl)cc3)n3cnnc3N2)cc1OC (stereo unspecified),"inconclusive: 50.1 µM [inhibitor, partial curve, poor fit]"
4,CCOc1ccc(NC(=O)CN2C(C(=O)OC)=C(c3ccccc3)c3cc(Cl)ccc3S2(=O)=O)cc1,inactive
5,Cc1ccc(-c2csc3n[nH]c(=S)n23)cc1,"inconclusive: 28.2 µM [inhibitor, full curve, poor fit] and inconclusive: 17.8 µM [inhibitor, full curve, poor fit]"
6,CCOC(=O)c1ccc(N2C(=O)c3n[nH]c(-c4ccco4)c3C2c2ccc(F)cc2)cc1 (stereo unspecified),inactive
7,CCOc1ccc(CN2C(=O)c3ccccc3Sc3ccc(C(=O)N4CCN(C)CC4)cc32)cc1,inactive
8,COc1ccc(S(=O)(=O)N2Cc3ccccc3CC2C(=O)Nc2nccs2)cc1 (stereo unspecified),inactive
9,O=C(O)c1cccc(-c2nnn(Cc3ccccc3Cl)n2)c1,"inconclusive: 79.4 µM [inhibitor, single point]"
10,COc1ccc(Br)c2c1-c1nc(NC(=O)c3cccc(C)c3)sc1C2,"inconclusive: 79.4 µM [inhibitor, partial curve, poor fit]"
11,CCOC(=O)c1c(C)[nH]c(C2=NNC(=Nc3ccc(OCC)cc3)SC2)c1C,"inconclusive: 89.1 µM [inhibitor, partial curve, poor fit]"
12,Cc1cccc(C)c1NC(=O)c1nc(S(=O)(=O)Cc2ccccc2)ncc1Cl,"inconclusive: 35.5 µM [inhibitor, partial curve, poor fit]"
13,Nc1ccc2nc(CCCCCCc3nc4ccc(N)cc4[nH]3)[nH]c2c1,"inconclusive: 79.4 µM [inhibitor, single point]"
14,O=C(CCCN1C(=O)/C(=C\c2ccccc2)SC1=S)Nc1ccc(O)cc1C(=O)O,inactive
15,CCCCc1nc2ccccc2c(NC(=O)CNC(C)(C)C)c1CCC,inactive
16,CCOc1ccc(C(c2c(C)[nH][nH]c2=O)c2c(C)[nH][nH]c2=O)cc1OCC,"inconclusive: 44.7 µM [inhibitor, partial curve, poor fit]"
17,Cc1ccc(S(=O)(=O)Cc2ccc([N+](=O)[O-])cc2)cc1,inactive
18,COC(=O)c1ccccc1NC1=C/C(=N\S(=O)(=O)c2cccs2)c2ccccc2C1=O,"inconclusive: 100 µM [inhibitor, single point]"
19,COc1cc2c(cc1OC)/C(=C/C(=O)c1ccc([N+](=O)[O-])c(C)c1)NCC2,"inconclusive: 28.2 µM [inhibitor, full curve, poor fit]"
20,CCC(=O)N1c2ccc(S(=O)(=O)CCC(=O)NCc3ccc4c(c3)OCO4)cc2CC1C (stereo unspecified),"inconclusive: 79.4 µM [inhibitor, partial curve, poor fit]"
